Our source for the binding signal values is paper PMC9911399, “Two distinct binding modes provide the RNA-binding protein RbFox with extraordinary sequence specificity”.

T1: RBFOX1 RRM (Homo sapiens, UniProt Q9NWB1 109-208)
T1 sequence: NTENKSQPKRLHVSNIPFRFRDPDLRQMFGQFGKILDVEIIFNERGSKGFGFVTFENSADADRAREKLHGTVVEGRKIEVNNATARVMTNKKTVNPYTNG

B1: AUUAGGU (DNA:RNA)
RNA: GGGAGACCGGAAUUCAGAUUGUCCAUUAGGUUUAAAUCCCGUCGUAGCCACCA
DNA 1: CAATCTGAATTCCGGTCTCCC
DNA 2: TGGTGGCTACGACGGGATT
B2: ACUGAAG (DNA:RNA)
RNA: B1 RNA with U26C, A28G, G29A, G30A, U31G
DNA 1: CAATCTGAATTCCGGTCTCCC
DNA 2: TGGTGGCTACGACGGGATT
B3: CCCUUUC (DNA:RNA)
RNA: GGGAGACCGGAAUUCAGAUUGUCCCCCUUUCUUAAAUCCCGUCGUAGCCACCA
DNA 1: CAATCTGAATTCCGGTCTCCC
DNA 2: TGGTGGCTACGACGGGATT
B4: AUUCUCC (DNA:RNA)
RNA: B1 RNA with A28C, G29U, G30C, U31C
DNA 1: CAATCTGAATTCCGGTCTCCC
DNA 2: TGGTGGCTACGACGGGATT
B5: AUAUAAU (DNA:RNA)
RNA: B1 RNA with U27A, A28U, G29A, G30A
DNA 1: CAATCTGAATTCCGGTCTCCC
DNA 2: TGGTGGCTACGACGGGATT
B6: AUGAUUG (DNA:RNA)
RNA: B1 RNA with U27G, G29U, G30U, U31G
DNA 1: CAATCTGAATTCCGGTCTCCC
DNA 2: TGGTGGCTACGACGGGATT
B7: AGGACGC (DNA:RNA)
RNA: B1 RNA with U26G, U27G, G29C, U31C
DNA 1: CAATCTGAATTCCGGTCTCCC
DNA 2: TGGTGGCTACGACGGGATT
B8: CCGGUGC (DNA:RNA)
RNA: B3 RNA with C27G, U28G, U30G
DNA 1: CAATCTGAATTCCGGTCTCCC
DNA 2: TGGTGGCTACGACGGGATT
B9: CGAUUCG (DNA:RNA)
RNA: B3 RNA with C26G, C27A, U30C, C31G
DNA 1: CAATCTGAATTCCGGTCTCCC
DNA 2: TGGTGGCTACGACGGGATT
B10: UUAGGGU (DNA:RNA)
RNA: B1 RNA with A25U, U27A, A28G
DNA 1: CAATCTGAATTCCGGTCTCCC
DNA 2: TGGTGGCTACGACGGGATT
B11: CUAAAUG (DNA:RNA)
RNA: B1 RNA with A25C, U27A, G29A, G30U, U31G
DNA 1: CAATCTGAATTCCGGTCTCCC
DNA 2: TGGTGGCTACGACGGGATT
B12: CCGAAGU (DNA:RNA)
RNA: B1 RNA with A25C, U26C, U27G, G29A
DNA 1: CAATCTGAATTCCGGTCTCCC
DNA 2: TGGTGGCTACGACGGGATT
B13: UCGCUUC (DNA:RNA)
RNA: B3 RNA with C25U, C27G, U28C
DNA 1: CAATCTGAATTCCGGTCTCCC
DNA 2: TGGTGGCTACGACGGGATT
B14: GACUGGG (DNA:RNA)
RNA: B1 RNA with A25G, U26A, U27C, A28U, U31G
DNA 1: CAATCTGAATTCCGGTCTCCC
DNA 2: TGGTGGCTACGACGGGATT
B15: ACAGACG (DNA:RNA)
RNA: B1 RNA with U26C, U27A, A28G, G29A, G30C, U31G
DNA 1: CAATCTGAATTCCGGTCTCCC
DNA 2: TGGTGGCTACGACGGGATT
B16: ACCACUC (DNA:RNA)
RNA: B3 RNA with C25A, U28A, U29C
DNA 1: CAATCTGAATTCCGGTCTCCC
DNA 2: TGGTGGCTACGACGGGATT
B17: ACGAGAU (DNA:RNA)
RNA: B1 RNA with U26C, U27G, G30A
DNA 1: CAATCTGAATTCCGGTCTCCC
DNA 2: TGGTGGCTACGACGGGATT
B18: GUCGGUA (DNA:RNA)
RNA: B1 RNA with A25G, U27C, A28G, G30U, U31A
DNA 1: CAATCTGAATTCCGGTCTCCC
DNA 2: TGGTGGCTACGACGGGATT
B19: CAAAGAC (DNA:RNA)
RNA: B1 RNA with A25C, U26A, U27A, G30A, U31C
DNA 1: CAATCTGAATTCCGGTCTCCC
DNA 2: TGGTGGCTACGACGGGATT
B20: CACAUUU (DNA:RNA)
RNA: B3 RNA with C26A, U28A, C31U
DNA 1: CAATCTGAATTCCGGTCTCCC
DNA 2: TGGTGGCTACGACGGGATT

Where a chain is given by its changes, count along the chain named. Some of the results follow.

The target of the assay is T1, RBFOX1 RRM. The experiment in a line: EMSA; HiTS-Eq, 1 nM pool, 10 min; buffer printed only for the single-RNA assays: 10 mM Tris pH 7.5, 150 mM NaCl, 3.4 mM EDTA, 0.001% NP-40, 30 C. Particulars: tags: His6 N-terminal (pET28a); label: 5' 32P. Put shortly: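 Purified RbFox RRM (wild type or mutant) was equilibrated for 10 min in 50 µL with 1 nM of a 5′-radiolabelled pool of RNA with 7 randomized nucleotides, its flanks annealed to DNA oligonucleotides, across increasing protein concentrations. Free RNA was separated by 8% native PAGE, excised, reverse-transcribed, PCR-barcoded and sequenced on an Illumina HiSeq 2500. Relative association constants came from read-count changes of each variant against the control reaction, normalised to the cognate motif.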
(In general: Mobility shift assays separate free from complexed probe on a gel.)
Consider B1, for which the binding signal was 0.0079 KA relative to UGCAUGU. To B2 belongs 0.0117 KA relative to UGCAUGU. With B3, the binding signal is 0.00899 KA relative to UGCAUGU. For B4 the value was 0.00179 KA relative to UGCAUGU; for B5, 0.0019 KA relative to UGCAUGU; for B6, 0.0164 KA relative to UGCAUGU.

For the molecule B7, the binding signal is 0.0193 KA relative to UGCAUGU.

With B8, the binding signal is 0.0149 KA relative to UGCAUGU. For B9 the value was 0.0156 KA relative to UGCAUGU; for B10, 0.00518 KA relative to UGCAUGU; for B11, 0.00829 KA relative to UGCAUGU.

With B12, the binding signal was 0.00878 KA relative to UGCAUGU. As to B13, the binding signal is 0.0125 KA relative to UGCAUGU. For B14 the value was 0.0136 KA relative to UGCAUGU. For B15 the value was 0.00395 KA relative to UGCAUGU; for B16, 0.00139 KA relative to UGCAUGU; for B17, 0.0074 KA relative to UGCAUGU. Regarding B18, the binding signal was 0.0155 KA relative to UGCAUGU. With B19, the binding signal was 0.00187 KA relative to UGCAUGU. To B20 belongs 0.00171 KA relative to UGCAUGU.
